Experimental findings from PubChem BioAssay AID2202238 (Ras Initiative Chemistry Research Team, Frederick National …, 2025) are described below.

The other results are listed elsewhere or left out. These are further read-outs of the screen, such as a control signal, another cell line or another target. No call is given for them.

For this assay, the target named is GTPase KRas (Homo sapiens) (UniProt P01116). In words: Covalent labelling of cysteine mutants by fragments, read by mass spectrometry (AID 2202238). Details: protein at 5 µM with 500 µM competing thiol for 1.5 h. To be noted: KRAS G12D cysteine mutants, disulfide tethering, MALDI-TOF labeling, stronger effect = higher value, fragment at 500 µM.
UniProt P01116, sequence (P01116 whole entry, looked up, the tested form may be a part): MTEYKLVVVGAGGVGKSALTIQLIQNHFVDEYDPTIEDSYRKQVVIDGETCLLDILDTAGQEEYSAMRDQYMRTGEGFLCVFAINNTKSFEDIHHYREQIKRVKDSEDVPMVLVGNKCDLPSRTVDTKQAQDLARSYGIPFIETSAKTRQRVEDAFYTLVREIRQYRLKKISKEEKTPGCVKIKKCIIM
[1] abbreviates: measured here: G60C mutant labeling.
Setting [2] is: measured here: G75C mutant labeling.
Setting [3] is: measured here: H94C mutant labeling.
Where [4] appears, read: measured here: I36C mutant labeling.
[5] abbreviates: measured here: L120C mutant labeling.
The mark [6] stands for this setting: measured here: M67C mutant labeling.
The mark [7] stands for this setting: measured here: M72C mutant labeling.
[8] abbreviates: measured here: N26C mutant labeling.
Setting [9] is: measured here: N86C mutant labeling.
[10] abbreviates: measured here: P121C mutant labeling.
The mark [11] stands for this setting: measured here: S122C mutant labeling.
Where [12] appears, read: measured here: S136C mutant labeling.

As for `O=C(NCCS)[C@@H]1C[C@]12CCOc1ccc(Cl)cc12`, the percent labeling runs as follows: under setting [1], 31.5%; under setting [2], 9.3%; under setting [3], 13.9%; under setting [4], 12.7%; under setting [5], 16.5%; under setting [6], 14.7%. Moreover, the percent labeling runs as follows: under setting [7], 26%; under setting [8], 26.8%; under setting [9], 10.9%; under setting [10], 21.7%; under setting [11], 10.9%; under setting [12], 19%.
In turn, `Cc1nc2ncc(C(=O)NCCS)cc2[nH]1` came in with a percent labeling under setting [1] of 29%; a percent labeling under setting [2] of 18.5%; a percent labeling under setting [3] of 28.2%; a percent labeling under setting [4] of 23.8%; a percent labeling under setting [5] of 27.7%; a percent labeling under setting [6] of 32.1%. In addition, the percent labeling was found to be 33.4% under setting [7]; 44% under setting [8]; 32.6% under setting [9]; 24% under setting [10]; 29.1% under setting [11]; 48% under setting [12].
`O=C(CC(c1ccc(Cl)c(Cl)c1)N1CCOCC1)NCCS` (stereo not drawn): the percent labeling is, setting by setting: under setting [1], 61.1%; under setting [2], 26.3%; under setting [3], 36.1%; under setting [4], 29.4%; under setting [5], 31.4%; under setting [6], 49.2%. For the same molecule, the percent labeling is, setting by setting: under setting [7], 45.9%; under setting [8], 40.1%; under setting [9], 18.6%; under setting [10], 28.2%; under setting [11], 22.5%; under setting [12], 44.4%.
Consider `O=C(NCCS)C1CCCN1C(=O)c1cncn1-c1ccccc1` (stereo not drawn), for which the percent labeling came to 28.9% under setting [1]; 14.5% under setting [2]; 31.2% under setting [3]; 28% under setting [4]; 26.9% under setting [5]; 30.2% under setting [6]. The percent labeling reads like this: under setting [7], 15.6%; under setting [8], 27.2%; under setting [9], 18.3%; under setting [10], 31.4%; under setting [11], 23%; under setting [12], 42.7%.
On to `O=C(NCCS)c1cc(Nc2ccccc2)ncn1`, for which the percent labeling is, setting by setting: under setting [1], 8.6%; under setting [2], 8%; under setting [3], 8.9%; under setting [4], 9.7%; under setting [5], 12.5%; under setting [6], 12.3%. This molecule also yielded a percent labeling under setting [7] of 28.6%; a percent labeling under setting [8] of 21.1%; a percent labeling under setting [9] of 5.5%; a percent labeling under setting [10] of 9.3%; a percent labeling under setting [11] of 8.5%; a percent labeling under setting [12] of 17.7%.
`Cn1nc(NC(=O)CCS)cc1CN1CCOCC1` returned a percent labeling under setting [2] of 11.8%; a percent labeling under setting [3] of 33.1%; a percent labeling under setting [4] of 36.8%; a percent labeling under setting [5] of 40.5%; a percent labeling under setting [6] of 36%; a percent labeling under setting [7] of 24.6%. For the same molecule, the percent labeling under setting [9] stood at 23.1%, the percent labeling under setting [10] turned out to be 31.6%, the percent labeling under setting [11] came out at 35.6% and the percent labeling under setting [12] turned out to be 46.3%.
As to `O=C(CCS)NCC(=O)N1CCc2sccc2C1`, the percent labeling runs as follows: under setting [2], 11.5%; under setting [3], 31.4%; under setting [4], 33.2%; under setting [5], 39.2%; under setting [6], 39.8%; under setting [7], 35.8%. Also, the percent labeling was determined as 31.8% under setting [9], 34.5% under setting [10], 32.2% under setting [11] and 53.1% under setting [12].
Molecule `O=C(CCS)NC1(c2nc(C3CC3)cc(=O)[nH]2)CCCCC1` returned a percent labeling under setting [2] of 11.2%; a percent labeling under setting [3] of 35.3%; a percent labeling under setting [4] of 31.3%; a percent labeling under setting [5] of 21.8%; a percent labeling under setting [6] of 30.2%; a percent labeling under setting [7] of 45.3%. Further, the percent labeling was found to be 21.5% under setting [9], 26.3% under setting [10], 21.1% under setting [11] and 42.1% under setting [12].
On to `O=C(CCS)NC1CC2(C1)NC(=O)NC2=O` (stereo not drawn), for which the percent labeling reads like this: under setting [2], 23.4%; under setting [3], 35.5%; under setting [4], 30.1%; under setting [5], 27%; under setting [6], 26.4%; under setting [7], 15.5%. Also, the percent labeling was found to be 39.4% under setting [9], 35.8% under setting [10], 44.9% under setting [11] and 47.3% under setting [12].
Take `Cc1csc(N(CCc2ccccc2)C(=O)CCS)n1`: the percent labeling under setting [2] worked out at 25.1%; the percent labeling under setting [3] turned out to be 19.7%; the percent labeling under setting [4] was found to be 19.8%; the percent labeling under setting [5] turned out to be 14.3%; the percent labeling under setting [6] was 15.1%; the percent labeling under setting [7] was found to be 36.8%. For the same molecule, the percent labeling turned out to be 14.2% under setting [9], 16.6% under setting [10], 9.5% under setting [11] and 38.3% under setting [12].
With `Cn1ccn2ncc(CNC(=O)CCS)c2c1=O`, the percent labeling stood at 17.4% under setting [2]; 28% under setting [3]; 47.8% under setting [4]; 31.3% under setting [5]; 49.6% under setting [6]; 26.5% under setting [7]. Further, the percent labeling turned out to be 36.9% under setting [9], 38.1% under setting [10], 45.6% under setting [11] and 63.3% under setting [12].
Regarding `CN(C)Cc1csc(CNC(=O)CCS)n1`, the percent labeling runs as follows: under setting [2], 7.9%; under setting [3], 24%; under setting [4], 35.7%; under setting [5], 21.5%; under setting [6], 40.1%; under setting [7], 11.1%. Also, the percent labeling under setting [9] is 19.4%, the percent labeling under setting [10] was determined as 22.8%, the percent labeling under setting [11] is 28.3% and the percent labeling under setting [12] is 40.3%.
As to `Cc1onc(-c2ccccc2)c1NC(=O)CCS`, the percent labeling stood at 14.7% under setting [2]; 36.9% under setting [3]; 38.8% under setting [4]; 22.1% under setting [5]; 38.1% under setting [6]; 36% under setting [7]. Moreover, the percent labeling is, setting by setting: under setting [9], 21.8%; under setting [10], 34%; under setting [11], 29.3%; under setting [12], 53.8%.
For the molecule `O=C(CCS)N1CCC(N2C(=O)CCCC2=O)CC1`, the percent labeling reads like this: under setting [2], 6.1%; under setting [3], 26.8%; under setting [4], 26.6%; under setting [5], 27.5%; under setting [6], 35.6%; under setting [7], 13.4%. Further, the percent labeling stood at 28.1% under setting [9], 27.9% under setting [10], 24.8% under setting [11] and 44.4% under setting [12].
Take `O=C(CCc1ccc2cccnc2c1)NCCS`: the percent labeling by setting is: under setting [1], 49.1%; under setting [2], 23%; under setting [3], 31.3%; under setting [4], 31.2%; under setting [5], 33.2%; under setting [6], 35.9%. For the same molecule, the percent labeling was 40.2% under setting [7]; 43.6% under setting [8]; 25.2% under setting [9]; 33.7% under setting [10]; 32.5% under setting [11]; 42.4% under setting [12].
As for `O=C(CCS)N1CC2ON=C(C(F)F)C2C1` (stereo not drawn), the percent labeling reads like this: under setting [2], 22.5%; under setting [3], 29.9%; under setting [4], 33.6%; under setting [5], 33.6%; under setting [6], 29.3%; under setting [7], 23.3%. The percent labeling was 31.3% under setting [9], 34% under setting [10], 39.5% under setting [11] and 54.3% under setting [12].
As to `Cn1nc(C(=O)NCCS)c(=O)c2ccccc21`, the percent labeling reads like this: under setting [1], 34.7%; under setting [2], 43.3%; under setting [3], 27.8%; under setting [4], 17.6%; under setting [5], 37.9%; under setting [6], 36.6%. Also, the percent labeling came to 79.8% under setting [7]; 45.5% under setting [8]; 18.9% under setting [9]; 42.1% under setting [10]; 12.1% under setting [11]; 43.9% under setting [12].
In the case of `O=C(CCS)NCCc1nccc(C(F)F)n1`, the percent labeling worked out at 8% under setting [2]; 24.3% under setting [3]; 37.6% under setting [4]; 27.2% under setting [5]; 28.9% under setting [6]; 12.6% under setting [7]. In addition, the percent labeling reads like this: under setting [9], 25.1%; under setting [10], 35.2%; under setting [11], 38.7%; under setting [12], 47.2%.
As to `NC(=O)COc1cccc(NC(=O)CCS)c1`, the percent labeling is 19.7% under setting [2]; 37.6% under setting [3]; 41.2% under setting [4]; 31.3% under setting [5]; 30.1% under setting [6]; 38.9% under setting [7]. The same molecule registered a percent labeling under setting [9] of 31.7%, a percent labeling under setting [10] of 31.7%, a percent labeling under setting [11] of 39.8% and a percent labeling under setting [12] of 48.5%.
On to `O=C1CCCc2cc(C(=O)NCCS)ccc2N1`, for which the percent labeling by setting is: under setting [1], 31.2%; under setting [2], 19.6%; under setting [3], 37.1%; under setting [4], 27.6%; under setting [5], 34.3%; under setting [6], 28.7%. Moreover, the percent labeling reads like this: under setting [7], 33.1%; under setting [8], 42.3%; under setting [9], 23.5%; under setting [10], 25%; under setting [11], 24.8%; under setting [12], 43.9%.
For `CC(O)(C(=O)NCCS)C1CCC1` (stereo not drawn), the percent labeling reads like this: under setting [1], 39.1%; under setting [2], 21.8%; under setting [3], 39.5%; under setting [4], 26.6%; under setting [5], 44.4%; under setting [6], 29.6%. Further, the percent labeling worked out at 27.4% under setting [7]; 31.1% under setting [8]; 37.9% under setting [9]; 33.3% under setting [10]; 32.6% under setting [11]; 41.1% under setting [12].
On to `Cc1noc(C)c1CN(Cc1c(C)noc1C)C(=O)CCS`, for which the percent labeling was found to be 12.5% under setting [2]; 41.2% under setting [3]; 40.5% under setting [4]; 22.7% under setting [5]; 44.7% under setting [6]; 31.1% under setting [7]. The percent labeling is, setting by setting: under setting [9], 27.2%; under setting [10], 36.4%; under setting [11], 34.5%; under setting [12], 61.1%.
With `O=C(CCS)NCc1ncoc1-c1ccccc1`, the percent labeling under setting [2] stood at 12.9%; the percent labeling under setting [3] is 37.5%; the percent labeling under setting [4] stood at 44.1%; the percent labeling under setting [5] is 31.1%; the percent labeling under setting [6] amounted to 34.2%; the percent labeling under setting [7] worked out at 50.5%. This molecule gave a percent labeling under setting [9] of 25.4%, a percent labeling under setting [10] of 35.1%, a percent labeling under setting [11] of 30% and a percent labeling under setting [12] of 61.4%.
`O=C(CCS)N1CCn2cccc2C12CCC2`: the percent labeling runs as follows: under setting [2], 5.9%; under setting [3], 3.6%; under setting [4], 14.1%; under setting [5], 0%; under setting [6], 2.4%; under setting [7], 0%. The percent labeling is 6.5% under setting [9], 0% under setting [10], 3.4% under setting [11] and 0% under setting [12].
